From PubChem BioAssay AID504845 (National Center for Advancing Translational Sciences (NCATS), 2011)
The whole screen tested about 390,000 compounds, of which about 150 (0.038%) were called active. The inconclusive results got no clear call from the source; some entries with a clear call stand among them for comparison. Calls follow the shape of the dose curve; as a rule, active = well fitted inhibition curve with a large enough effect; inconclusive = small, poorly fitted or top-dose-only effect; inactive = no such curve, though single readings can be large or run the other way. Potencies of inconclusive entries are doubtful fits and often do not repeat.

molecular target: Regulator of G-protein signaling 4 (Homo sapiens) (UniProt P49798); experiment: Inhibitors of Regulator of G Protein Signaling (RGS) 4: qHTS; details: Transcreener GDP fluorescence polarization, RGS4-accelerated GTP hydrolysis; series mostly up to 114 µM; activity change, negative = inhibition: at the top concentration; also: nearly all actives have a fitted effect of over 75% in size
How it was run: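 MLSMR compounds (23 nl, pin-transferred) preincubated 10 min at room temperature with a 500nM (2x) first reagent, then RGS4 at 900nM (2x) plus Transcreener GDP mix added; fluorescence polarization (620/688 nm) read before and after 90 min at 30 °C.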
% is scaled to controls: 0 for no effect and ±100 for the full control effect; potency is read from the fitted curve at half-maximal effect; tags tell the direction and shape of the fitted curve.

Chain of UniProt P49798 (P49798 whole entry, looked up): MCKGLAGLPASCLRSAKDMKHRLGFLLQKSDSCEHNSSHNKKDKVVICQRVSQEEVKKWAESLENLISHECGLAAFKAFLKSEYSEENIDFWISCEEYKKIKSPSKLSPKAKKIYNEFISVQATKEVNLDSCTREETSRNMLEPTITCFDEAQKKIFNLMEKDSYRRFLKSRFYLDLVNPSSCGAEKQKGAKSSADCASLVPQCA

Row | SMILES | activity change, negative = inhibition | Potency
1 | CC(C)CNC(=O)c1cccc(NC(=O)Cc2ccc(Cl)cc2)c1 | inactive: -16.2% | 
2 | COCCn1c(C)cc(C(=O)CSc2nc(C)nc3sc4c(c23)CCC4)c1C | inactive: -46.6% | 
3 | CCCC12CN3CC(C)(CN(C1)C3c1ccc(OC)cc1)C2=O (stereo not drawn) | inactive: -9.06% | 
4 | CCOC(=O)C(C)N1C(=O)S/C(=C/c2cc(C)n(-c3ccccn3)c2C)C1=O (stereo not drawn) |  | inconclusive: 89.1 µM [inhibitor, single point]
5 | CC(=O)NC1Sc2ccccc2N=C1c1ccccc1 (stereo not drawn) |  | inconclusive: 31.6 µM [inhibitor, full curve, poor fit]
6 | COc1cc(/C=N/N=C2/SCC(=O)N2c2ccc(O)cc2)ccc1O |  | inconclusive: 20 µM [inhibitor, full curve, poor fit]
7 | COc1ccc(NC(=O)c2ccc(-c3ccc(-c4noc(C)n4)cc3C)cc2)cc1N1CCN(C)CC1 |  | inconclusive: 26.7 µM [inhibitor, single point]
8 | Cc1[nH]c(=S)c(C#N)c(C)c1Cc1ccccc1 |  | inconclusive: 35.5 µM [inhibitor, partial curve, poor fit]
9 | COc1cccc(C2C(C(=O)/C=C/c3ccco3)=C(O)C(=O)N2CCN2CCOCC2)c1 (stereo not drawn) | inactive: -36.4% | 
10 | O=C(NCCc1nc2ccccc2[nH]1)/C(=C/c1ccc2c(c1)OCO2)NC(=O)c1ccc(Cl)cc1Cl |  | inconclusive: 50.1 µM [inhibitor, partial curve, poor fit]
11 | O=c1c2ccccc2nc(SCc2nnc(-c3ccccc3)o2)n1-c1ccc(F)cc1F |  | inconclusive: 100 µM [inhibitor, single point]
12 | Fc1ccc(NC(=S)Nc2nccs2)cc1 |  | inconclusive: 89.1 µM [inhibitor, partial curve, poor fit]
13 | COc1ccc(/C=N/Nc2nnc(Cc3ccc(OC)c(OC)c3)c(=O)[nH]2)cc1OC |  | inconclusive: 28.2 µM [inhibitor, full curve, poor fit]
14 | Cc1cc(NC(=O)Nc2ccccc2[N+](=O)[O-])no1 |  | inconclusive: 17.8 µM [inhibitor, full curve, poor fit]
15 | COC(=O)Cc1nnc(SCC(=O)Nc2ccccc2)c2ccccc12 |  | inconclusive: 56.2 µM [inhibitor, partial curve, poor fit]
16 | COc1ccc2cc(/C=C/C(=O)N3CCN(CC(=O)N4CCCCCC4)CC3)ccc2c1 | inactive: -36.2% | 
17 | CC(C)(C)c1ccc(C(=O)c2c[nH]c(C(=O)NCCCN3CCOCC3)c2)cc1 | inactive: -28.6% | 
18 | O=C(N/N=C/c1cc([N+](=O)[O-])ccc1O)c1cccc(NC(=O)c2cccc(Cl)c2)c1 |  | inconclusive: 39.8 µM [inhibitor, partial curve, poor fit]
